# Out of some 52,000 compounds screened, about 4,300 (8.3%) were called active. Cut-off read from the data, not from the text of the source: active = survival mostly below about 52% (no sharp cut-off); inactive = mostly above about 56%. The list shows a part of the results.
# System: DeltatarO mutant
# Experiment: growth inhibition of S. aureus wild type versus tarO mutant, primary screen, teichoic acid synthesis inhibitors, RN4220, OD600 (AID 463173)
# Settings: OD600, 18 h, stronger effect = lower value, screened at 18.75 µg/mL (by protocol)
row,Compound,survival
1,CCOc1ccc(Cn2c(CNS(=O)(=O)c3ccc(CC)cc3)nc3cccnc32)cc1,inactive: 95%
2,COc1ccc(OC)c(CCNC(=O)c2nn(C)c3c2CSc2ccccc2-3)c1,inactive: 82%
3,CNC(=O)c1ccc2nc(Cc3ccccc3)oc2c1,active: 37%
4,CCC1CCc2c(sc(NC(=O)C3c4ccccc4Oc4ccccc43)c2C(=O)OC)C1 (centres undefined),inactive: 72%
5,CC(C)c1ccc2oc(-c3ccc(Cl)c(NC(=O)Cc4ccccc4)c3)nc2c1,inactive: 116%
6,CCOC(=O)N1CCC(NC(=O)c2ccc3c(c2)N(Cc2ccc(Cl)cc2)C(=O)c2ccccc2S3(=O)=O)CC1,inactive: 72%
7,Cc1ccc(C(=O)c2oc3ccccc3c2NC(=O)C(C)Oc2ccccc2Cl)cc1 (centres undefined),active: 40%
8,COc1ccccc1C(=O)N=C1NC(=O)CC2C(=O)NCCN12 (centres undefined),inactive: 89%
9,CC(C)c1ccc(C2=NC(c3ccncc3)=Nc3ccc(F)cc3N2)cc1,inactive: 59%
10,O=C(Nc1nc2c(s1)CCCC2)c1ccccc1F,inactive: 76%
11,CCOc1ccc(OCC)c(Nc2nc3ccc(C(=O)c4ccccc4)cc3n3cnnc23)c1,inactive: 77%
12,COc1ccc2c(c1)CC(C(=O)Nc1ccc(OC)cc1OC)CO2 (centres undefined),inactive: 89%
13,O=C(Cn1cc(SCc2ccccc2F)c2ccccc21)N1CCCC1,inactive: 57%
14,Cc1cc(Br)ccc1NC(=O)CCNS(=O)(=O)c1cccc2nonc12,active: 43%
15,CC1CCN(C(=O)c2ccc3c(c2)nnn3C)CC1,inactive: 83%
16,COc1ccc(NC(=O)c2c(NCc3cccs3)sc3c2CCCCC3)c(OC)c1,inactive: 69%
17,O=C(Nc1ccc(Br)cc1F)c1cc2nc(-c3ccco3)cc(C(F)(F)Cl)n2n1,inactive: 82%
18,O=C(c1cnn2c(C(F)F)cc(-c3ccccc3)nc12)N1CCCC1,inactive: 84%
19,O=C(NC1CCCC1)c1ccc(CSc2nc3cccnc3n2Cc2ccccc2)cc1,inactive: 95%
20,COc1ccc(CCNC(=O)CSCc2nc(-c3cccc(C)c3)oc2C)cc1OC,inactive: 66%

row,Compound,survival
1,O=C(NCc1ccccc1)c1ccc2c(c1)N(Cc1ccc(F)cc1)CCS2,inactive: 73%
2,COC(=O)C1CC(=O)N(c2ccccc2)C1 (centres undefined),inactive: 72%
3,CCc1ccc(NC(=O)C2CCN(S(=O)(=O)c3c(C)noc3C)CC2)cc1,inactive: 104%
4,Cn1c(=O)c2cc(C(=O)Nc3cccc(C#N)c3)sc2c2ccccc21,inactive: 106%
5,COc1ccc(C2=NN(CC(=O)NCCc3ccccc3)C(=O)CC2)cc1,inactive: 125%
6,CCCC(=O)Nc1sc2c(c1C(N)=O)CCC2,inactive: 65%
7,COc1ccc(CNC(=O)c2cc3oc4ccccc4c3n2C)cc1OC,active: 43%
8,CCCNC(=O)CN1C(=O)c2c(c3ccccc3n2C)C1c1ccc(OC)cc1 (centres undefined),inactive: 71%
9,CCc1ccc(S(=O)(=O)c2nnn3c2nc(N2CCC(C(N)=O)CC2)c2cc(Cl)ccc23)cc1,inactive: 69%
10,Cc1c(C(=O)Nc2cccc(C#N)c2)sc2nc3n(c(=O)c12)CCCCC3,inactive: 67%
11,O=C(COc1ccc(Cl)cc1)Nc1ccc(-c2nc3cc(Cl)ccc3o2)c(O)c1,inactive: 75%
12,O=S(=O)(c1ccc(Cl)c2ccccc12)N1CCCC1,inactive: 86%
13,CCc1cccc(C)c1NC(=O)CN1C(=O)c2ccccc2Sc2ncccc21,inactive: 90%
14,COc1ccc(NS(=O)(=O)c2c(C)nc3scc(C)n3c2=O)cc1,inactive: 90%
15,O=C(Nc1ccc2nc(SCC(=O)N3CCOCC3)sc2c1)c1cccc(F)c1,inactive: 86%
16,O=C(NCc1cccnc1)c1c[nH]c2cc3c(cc2c1=O)OCCO3,inactive: 100%
17,CCCCNC(=O)CCSc1nc(-c2ccc3c(c2)OCO3)cc(C(F)(F)F)n1,inactive: 80%
18,CCOC(=O)N1CCN(S(=O)(=O)N2CCCC(C(=O)NCc3ccc(OC)cc3OC)C2)CC1 (centres undefined),inactive: 90%
19,O=c1oc2ccc(Cl)cc2cc1-c1cn2c(n1)sc1ccccc12,inactive: 119%
20,COc1cccc(NC(=O)CSC2=Nc3ccccc3C3=NC(CC(=O)NCc4ccccc4OC)C(=O)N23)c1 (centres undefined),inactive: 129%

row,Compound,survival
1,Clc1ccccc1-c1nnc(SCc2nc(-c3ccccc3)no2)n1-c1ccccc1,inactive: 52%
2,O=C(NCCc1ccc(Cl)cc1)c1ccc(CSCc2ccc(Cl)cc2)o1,inactive: 83%
3,CCOc1ccc(NC(=O)CCC(=O)N2CCSc3ccccc32)cc1,inactive: 75%
4,CCCC(=O)n1nc(-c2cccnc2)nc1NCc1ccccc1,inactive: 81%
5,CCc1ccccc1NC(=O)Cn1c(=O)n(CCc2ccccc2)c(=O)c2ccccc21,inactive: 89%
6,CCC(=O)N1CCc2cc(Br)cc(S(=O)(=O)N3CCCC(C(=O)Nc4ccc(OC)cc4OC)C3)c21 (centres undefined),inactive: 65%
7,CCc1ccc(S(=O)(=O)c2nnn3c2nc(NC(C)C)c2cc(Cl)ccc23)cc1,inactive: 92%
8,CCOC(=O)c1cc2sc(C)cc2n1CC(=O)N1CCCCC1C (centres undefined),inactive: 96%
9,CC12CN3CC(c4ccccc4)(CN(C1)C3c1ccc(Cl)cc1)C2=O (centres undefined),inactive: 89%
10,CC(=O)c1cc(-c2ccccc2)n(CCC(=O)NC2CCCCC2)c1C,inactive: 67%
11,COc1ccccc1CNC(=O)c1ccc(CS(=O)c2ccccc2Cl)o1 (centres undefined),inactive: 80%
12,COC(=O)c1scc(-c2ccccc2)c1S(=O)(=O)Nc1ccc(C)c(Cl)c1,inactive: 85%
13,CCOc1ccc(NC(=O)c2c(NCc3cccs3)sc3c2CCCCC3)cc1,inactive: 74%
14,Cc1cccc(OCC(=O)N(Cc2ccc(N(C)C)cc2)Cc2ccco2)c1C,active: 42%
15,COc1ccc(C2C=C(c3ccccc3)Nc3nc(NC(=O)/C=C/c4ccccc4OC)nn32)cc1 (centres undefined),active: 52%
16,Cc1ccnc2nc(NC(=O)c3ccccc3Cl)nn12,inactive: 86%
17,CCc1ccc2[nH]c(=O)c(CN(Cc3ccco3)C(=O)c3ccccc3)cc2c1,inactive: 101%
18,CC(C)Oc1ccc(CNC(=O)c2cccc(NC(=O)c3nsc4ccccc34)c2)cc1,inactive: 78%
19,Cc1cc(C)cc(NC(=O)N2CCC(N3CCN(Cc4ccccc4)C(=O)C3=O)CC2)c1,inactive: 77%
